Patent US5637617A, “Methods for use of GABAa receptor GABAergic compounds” (The Regents of the University of California, priority 1994, dated 1997)
Like-named read-outs stand apart in the source and are kept apart here.

Tested on: rat cerebral cortex GABAA receptors expressed in oocytes
Type: cell-based
Details: for Potentiation at 10 μM (%) / Potentiation at 100 μM (%): Table 1, IG-Actx elicited by 10 μM GABA (<10% of maximum current), mean ± S.D., oocytes from the same frog, negative = inhibition; for potentiation of IG-Actx: drug ≤10 μM; for EC50: mean ±S.D., n=3-4, read-out: EC50 values for the facilitatory effects; for efficacy of potentiation: between mefenamic acid (≈300%) and niflumic acid (<50%); for Facilitatory effects after wash: 0.3-1 μM drug, 3-10 minute wash; for maximum levels of potentiation: FIG. 2, 1 minute pre-incubation
[1] = Example VIII, IG-Actx elicited by 10 μM GABA
[2] = Example VIII, 10 μM GABA, drug 100 μM

CC(=O)Oc1ccccc1C(=O)O [Acetylsalicylic acid]
Potentiation at 10 μM (%) (drug 10 μM): -- (no appreciable effect (<5% change from control))
Potentiation at 100 μM (%) (drug 100 μM): -- (no appreciable effect (<5% change from control))

O=C(O)Cc1ccccc1Nc1c(Cl)cccc1Cl [Diclofenac]
Potentiation at 10 μM (%) (drug 10 μM): -- (no appreciable effect (<5% change from control))
Potentiation at 100 μM (%) (drug 100 μM): -- (no appreciable effect (<5% change from control))

O=C(O)c1cc(-c2ccc(F)cc2F)ccc1O [Diflunisal, diflunisal]
potentiation of IG-Actx (10 μM GABA): comparable with flufenamic and meclofenamic acids
Potentiation at 10 μM (%) (drug 10 μM): 155 ± 24%
Potentiation at 100 μM (%) (drug 100 μM): 191 ± 29%

CC(C(=O)O)c1cccc(Oc2ccccc2)c1 (stereo not shown) [Fenoprofen]
effect on IG-Actx (10 μM GABA, drug 100 μM): some weak potentiation
Potentiation at 10 μM (%) (drug 10 μM): -- (no appreciable effect (<5% change from control))
Potentiation at 100 μM (%) (drug 100 μM): 27 ± 6%

O=C(O)c1ccccc1Nc1cccc(C(F)(F)F)c1 [Flufenamic acid]
Concentrations necessary to induce threshold levels of potentiation (IG-Actx elicited by 10 μM GABA): 0.3 to 1 µM
EC50 (IG-Actx elicited by 10 μM GABA): 8.8 ± 1.2 µM
Potentiation at 10 μM (%) (drug 10 μM): 156 ± 42%
efficacy of potentiation: intermediate efficacies

CC(C(=O)O)c1ccc(-c2ccccc2)c(F)c1 (stereo not shown) [Flurbiprofen]
effect on IG-Actx (10 μM GABA, drug 100 μM): slight reductions in current
Potentiation at 10 μM (%) (drug 10 μM): -- (no appreciable effect (<5% change from control))
Potentiation at 100 μM (%) (drug 100 μM): -7 ± 4%

O=C(O)c1ccccc1Nc1ccccc1C(=O)O [IDBA, 2.2'-Iminodibenzoic acid]
modulatory effect on IG-Actx [1]: wholly inactive as a positive modulator
effect on currents elicited by 10 μM GABA (drug ≥100 μM, FIG. 6A): only inhibitory effects

COc1ccc2c(c1)c(CC(=O)O)c(C)n2C(=O)c1ccc(Cl)cc1 [Indomethacin]
effect on IG-Actx (10 μM GABA, drug 100 μM): marginal increases
Potentiation at 10 μM (%) (drug 10 μM): -- (no appreciable effect (<5% change from control))
Potentiation at 100 μM (%) (drug 100 μM): 15 ± 10%

CC(C(=O)O)c1cccc(C(=O)c2ccccc2)c1 (stereo not shown) [Ketoprofen]
Potentiation at 10 μM (%) (drug 10 μM): -- (no appreciable effect (<5% change from control))
Potentiation at 100 μM (%) (drug 100 μM): -- (no appreciable effect (<5% change from control))

Cc1ccc(Cl)c(Nc2ccccc2C(=O)O)c1Cl [Meclofenamate, Meclofenamic acid]
Facilitatory effects after wash: essentially undetectable
Concentrations necessary to induce threshold levels of potentiation (IG-Actx elicited by 10 μM GABA): 0.1 to 0.3 µM
EC50 (IG-Actx elicited by 10 μM GABA): 6 µM
Potentiation at 10 μM (%) (drug 10 μM): 183 ± 40%
efficacy of potentiation: intermediate efficacies

Cc1cccc(Nc2ccccc2C(=O)O)c1C [Mefenamic acid]
residual effects after wash (100 μM drug, same cell as NPAA): still present after 60 minutes
Facilitatory effects after wash: essentially undetectable
effect of extended pre-incubation versus co-application with GABA (5-15 min pre-incubations in 0.5-10 μM drug): only marginally higher levels of facilitation
maximum levels of potentiation: ≈ 300%
amplification of the current response of GABAA receptors (FIG. 3, 10 μM drug, GABA 30 seconds at two minute intervals): 325%
Concentrations necessary to induce threshold levels of potentiation (IG-Actx elicited by 10 μM GABA): 0.1 to 0.3 µM
EC50 (IG-Actx elicited by 10 μM GABA): 5.2 ± 1 µM
Potentiation at 10 μM (%) (drug 10 μM): 268 ± 71%
reduction of the potentiation by a 1 minute wash (drug applied at 10 μM): 90%

O=C(O)c1ccccc1Nc1cccc([N+](=O)[O-])c1 [NPAA, N-(3-nitrophenyl) anthranilic acid]
potentiation [2]: 350-400%
modulatory effect on IG-Actx [1]: clear facilitation
time to complete wash out of potentiation (potentiation induced by 100 μM drug): < 10 min

COc1ccc2cc([C@H](C)C(=O)O)ccc2c1 [Naproxen]
effect on IG-Actx (10 μM GABA, drug 100 μM): marginal increases
Potentiation at 100 μM (%) (drug 100 μM): 11 ± 3%

O=C(O)c1cccnc1Nc1cccc(C(F)(F)F)c1 [Niflumic acid]
maximum levels of potentiation: < 50%
Concentrations necessary to induce threshold levels of potentiation (IG-Actx elicited by 10 μM GABA): 1 to 10 µM
EC50 (IG-Actx elicited by 10 μM GABA): 10.5 ± 4 µM
Potentiation at 10 μM (%) (drug 10 μM): 28 ± 8%

O=C(O)c1ccccc1Nc1ccccc1 [PAA, N-phenyl-anthranilic acid]
modulatory effect on IG-Actx (Example VIII, 10 μM GABA, drug 10 μM): essentially inactive
potentiation [2]: 30-40%

CCCCC1C(=O)N(c2ccccc2)N(c2ccccc2)C1=O [Phenylbutazone]
effect on IG-Actx (10 μM GABA, drug 100 μM): slight reductions in current
Potentiation at 10 μM (%) (drug 10 μM): -- (no appreciable effect (<5% change from control))
Potentiation at 100 μM (%) (drug 100 μM): -9 ± 2%

CN1C(C(=O)Nc2ccccn2)=C(O)c2ccccc2S1(=O)=O [Piroxicam]
effect on IG-Actx (10 μM GABA, drug 100 μM): marginal increases
Potentiation at 10 μM (%) (drug 10 μM): -- (no appreciable effect (<5% change from control))
Potentiation at 100 μM (%) (drug 100 μM): 14 ± 9%

CC1=C(CC(=O)O)c2cc(F)ccc2/C1=C\c1ccc([S+](C)[O-])cc1 (stereo not shown) [Sulindac]
potentiation of IG-Actx (10 μM GABA): relatively weak, similar to niflumic acid
Potentiation at 10 μM (%) (drug 10 μM): 21 ± 7%
Potentiation at 100 μM (%) (drug 100 μM): 123 ± 19%

Cc1ccccc1Nc1ccccc1C(=O)O [TAA, N-(O-tolyl) anthranilic acid]
modulatory effect on IG-Actx [1]: clear modulatory effects
potency relative to mefenamic acid (currents elicited by 10 μM GABA, FIG. 6B): approximately ten times less potent than mefenamic acid

Cc1ccc(C(=O)c2ccc(CC(=O)O)n2C)cc1 [Tolmetin]
Potentiation at 100 μM (%) (drug 100 μM): -- (no appreciable effect (<5% change from control))

Nc1ccccc1 [aniline]
modulatory effect on IG-Actx [1]: neither aniline (1-100 μM) nor anthranilic acid potentiated the response

Nc1ccccc1C(=O)O [anthranilic acid]
reduction of current [2]: approximately 15%
modulatory effect on IG-Actx [1]: neither aniline (1-100 μM) nor anthranilic acid potentiated the response
